Positions count from the first letter of the chain named.
B1: anti-GITR 51B VH4/VL3 humanized antibody (human IgG1, kappa) (antibody)
heavy: QVQLVQSGAEVKKPGASVKVSCKTTGYRFTGYWINWVRQPPGKGLEWIGEILPGSGATYYSENFKGKVTITADTSTDTAYMELSSLRSEDTAIYYCARKGGYYAMDYWGQGTLVTVSSASTKGPSVFPLAPSSKSTSGGTAALGCLVKDYFPEPVTVSWNSGALTSGVHTFPAVLQSSGLYSLSSVVTVPSSSLGTQTYICNVNHKPSNTKVDKRV[human IgG1 Fc not printed]
light: EIVLTQSPATLSLSPGERATLSCTASSSVSSSYFHWYQQKPGSAPKLWIYSTSNLASGVPDRFSGSGSGTDYTLTISSLQAEDVATYYCHLYHRSPRTFGGGTKVEIKRTVAAPSVFIFPPSDEQLKSGTASVVCLLNNFYPREAKVQWKVDNALQSGNSQESVTEQDSKDSTYSLSSTLTLSKADYEKHKVYACEVTHQGLSSPVTKSFNRGEC
B2: anti-GITR 51B VH3/VL3 humanized antibody (human IgG1, kappa) (antibody)
heavy: B1 heavy with N35E
light: B1 light
B3: anti-GITR 51B VH5/VL2 humanized antibody (human IgG1, kappa) (antibody)
heavy: B1 heavy with N35D
light: B1 light with E1Q, L21M
B4: anti-GITR 51B VH5/VL3 humanized antibody (human IgG1, kappa) (antibody)
heavy: B1 heavy with N35D
light: B1 light
B5: anti-GITR 51B VH1/VL2 humanized antibody (human IgG1, kappa) (antibody)
heavy: B1 heavy with V11L, V20L, N35E, V68A, D77N, L83V, E89G, T91S, L113S
light: B1 light with E1Q, L21M
B6: anti-GITR 51B VH1/VL3 humanized antibody (human IgG1, kappa) (antibody)
heavy: B1 heavy with V11L, V20L, N35E, V68A, D77N, L83V, E89G, T91S, L113S
light: B1 light
B7: anti-GITR 51B VH2/VL2 humanized antibody (human IgG1, kappa) (antibody)
heavy: B1 heavy with V20L, N35E, V68A, D77N, L83V
light: B1 light with E1Q, L21M
B8: anti-GITR 51B VH2/VL3 humanized antibody (human IgG1, kappa) (antibody)
heavy: B1 heavy with V20L, N35E, V68A, D77N, L83V
light: B1 light
B9: anti-GITR 51B VH3/VL2 humanized antibody (human IgG1, kappa) (antibody)
heavy: B1 heavy with N35E
light: B1 light with E1Q, L21M
B10: anti-GITR 51B VH4/VL2 humanized antibody (human IgG1, kappa) (antibody)
heavy: B1 heavy
light: B1 light with E1Q, L21M

target: recombinant human GITR (Cat No. 13643-H08H, Lot No. LC12JA2509, Sino Biological) (human) (UniProt Q9Y5U5); experiment: SPR Biacore 8K, multi-cycle kinetics, purified IgG captured on Protein A, GITR as analyte

Kd [nM] | Relative KD (fold vs VH0/VL0) | koff [s⁻¹] | kon [M⁻¹ s⁻¹] | Binder
0.81 | 1.42 | 0.000507 | 626000 | B1
0.643 | 1.13 | 0.000426 | 663000 | B2

target: recombinant human GITR (Cat No. 13643-H08H, Lot No. LC12JA2509, Sino Biological) (human) (UniProt Q9Y5U5); experiment: SPR Biacore 8K, single-cycle kinetics, IgG in supernatant captured on Protein A, GITR as analyte

Kd [nM] | Relative KD (fold vs VH0/VL0) | koff [s⁻¹] | kon [M⁻¹ s⁻¹] | Binder
1.02 | 1.8 | 0.000566 | 554000 | B1
2.33 | 4.1 | 0.000961 | 412000 | B3
1.93 | 3.4 | 0.00074 | 384000 | B4
0.791 | 1.4 | 0.000504 | 637000 | B2
1.16 | 2 | 0.000595 | 515000 | B5
1.04 | 1.8 | 0.000541 | 521000 | B6
1.09 | 1.9 | 0.000596 | 548000 | B7
1.22 | 2.2 | 0.00063 | 515000 | B8
0.737 | 1.3 | 0.000491 | 666000 | B9
1.05 | 1.9 | 0.000561 | 535000 | B10

— patent EP4339209A1 (MediMabbio Inc., dated 2024)
